According to the antibiotic and cytotoxicity screens of Wong et al. (2023):
The list shows a part of the results.

Experiments:
[1] = tested on: HSkMC (human skeletal muscle cells); experiment: cytotoxicity call (relative viability < 0.9); conditions: 10 µM
[2] = tested on: HepG2; experiment: cytotoxicity call (relative viability < 0.9); conditions: 10 µM
[3] = tested on: S. aureus RN4220; experiment: growth inhibition call (relative growth <= 0.2); conditions: 50 µM

| SMILES | cytotoxicity call [1] | cytotoxicity call [2] | growth inhibition call [3] |
| --- | --- | --- | --- |
| C[C@H](CO)N1C[C@H](C)[C@H](CN(C)C(=O)NC2CCCCC2)OCCCC[C@H](C)Oc2ccc(NC(=O)Nc3ccc4c(c3)OCO4)cc2C1=O | inactive | inactive | inactive |
| C=CC[C@@H](CC(=O)N[C@@H](CO)Cc1ccccc1)C(=O)N[C@H](C)COC(=O)[C@H](CC=C)CC(=O)OC(C)(C)C | inactive | inactive | inactive |
| C[C@@H]1CN([C@@H](C)CO)C(=O)c2cc(-c3ccc(C(=O)N(C)C)cc3)cnc2O[C@@H]1CN(C)C(=O)c1cccnc1 | inactive | inactive | inactive |
| CCCCc1cc(CCCC)n2nc(-c3ccccc3)cc2n1 | inactive | inactive | inactive |
| C[C@H](CO)N1C[C@H](C)[C@@H](CN(C)CC2CCCCC2)OCCCC[C@H](C)Oc2ccc(NC(=O)c3ccccc3)cc2C1=O | inactive | inactive | inactive |
| C[C@H]1CN([C@@H](C)CO)C(=O)c2cc(NC(=O)c3ccncc3)ccc2O[C@H]1CN(C)Cc1ccc(C(=O)O)cc1 | inactive | inactive | inactive |
| Cc1c(-c2c(-c3ccc(F)o3)sc3ncnc(O[C@H](Cc4ccccc4OCc4ccnn4CC(F)(F)F)C(=O)O)c23)ccc(OCCN2CCN(C)CC2)c1Cl | active | active | active |
| C[C@@H]1CN([C@@H](C)CO)C(=O)c2cccc(NC(=O)C3CC3)c2O[C@H]1CN(C)S(=O)(=O)c1cccs1 | inactive | inactive | inactive |
| C[C@H](CO)N1C[C@H](C)[C@H](CN(C)Cc2ccc3c(c2)OCO3)Oc2c(NC(=O)C3CCOCC3)cccc2C1=O | inactive | inactive | inactive |
| C[C@@H]1CCCCO[C@@H](CN(C)S(=O)(=O)c2ccc(Cl)cc2)[C@@H](C)CN([C@@H](C)CO)C(=O)c2cc(NC(=O)CCC(F)(F)F)ccc2O1 | inactive | inactive | inactive |
| CCNc1cc(=N)n(CC)c2n[nH]c(N)c12 | inactive | inactive | inactive |
| C[C@@H]1CN([C@H](C)CO)C(=O)c2cccc(NS(C)(=O)=O)c2O[C@@H]1CN(C)C(=O)Nc1ccc(F)cc1 | inactive | inactive | inactive |
| N[C@H](CSCCB(O)O)C(=O)O | inactive | inactive | inactive |
| C[C@H](c1cccnc1)N(C(=O)Nc1ccccc1)C1CCCCC1 | inactive | active | inactive |
| C[C@@H]1CN([C@H](C)CO)C(=O)Cc2cc(NC(=O)Nc3cccc4ccccc34)ccc2O[C@@H]1CN(C)Cc1ccc(-c2ccccc2)cc1 | inactive | inactive | inactive |
| C[C@@H]1CN([C@H](C)CO)C(=O)c2cc(/C=C/c3ccccc3)cnc2O[C@@H]1CN(C)C(=O)CN1CCOCC1 | inactive | inactive | inactive |
| COc1ccc(NC(=O)N(C)C[C@H]2Oc3c(NC(=O)C4CC4)cccc3C(=O)N([C@H](C)CO)C[C@H]2C)cc1 | inactive | inactive | inactive |
| Cc1ccc(S(=O)(=O)Nc2cccc3c2O[C@@H](CN(C)S(=O)(=O)c2ccc(F)cc2)[C@H](C)CN([C@H](C)CO)C3=O)cc1 | inactive | inactive | inactive |
| NC(=O)Cc1ccc(O)cc1 | inactive | inactive | inactive |

| SMILES | cytotoxicity call [1] | cytotoxicity call [2] | growth inhibition call [3] |
| --- | --- | --- | --- |
| C[C@@H]1CN([C@H](C)CO)C(=O)c2cc(NC(=O)Nc3ccccc3)ccc2O[C@@H](C)CCCCO[C@@H]1CN(C)C(=O)c1ccccc1 | inactive | inactive | inactive |
| CN1C(=O)C[C@@H]2[C@@H]1CCN2C(=O)c1ccc[nH]1 | inactive | inactive | inactive |
| COc1c2occc2c(OC)c2c(=O)cc(C)oc12 | inactive | active | inactive |
| COc1ccc(S(=O)(=O)N(C)C[C@@H]2OCCCC[C@@H](C)Oc3ccc(NC(=O)NC4CCCCC4)cc3C(=O)N([C@@H](C)CO)C[C@@H]2C)cc1 | inactive | inactive | inactive |
| Nc1nnc(C(=O)c2ccccc2N)s1 | inactive | inactive | inactive |
| CSc1ncc(F)c(N(CCO)CCO)n1 | inactive | inactive | inactive |
| COc1ccc(CN(C)C[C@@H]2OCCCC[C@@H](C)Oc3ccc(NS(=O)(=O)c4ccc(F)cc4)cc3C(=O)N([C@H](C)CO)C[C@@H]2C)cc1 | inactive | inactive | inactive |
| C[C@H](CO)N1C[C@H](C)[C@H](CN(C)C(=O)Nc2ccc3c(c2)OCO3)OCCCC[C@H](C)Oc2ccc(NS(=O)(=O)c3cccs3)cc2C1=O | inactive | inactive | inactive |
| C[C@H]1CN([C@@H](C)CO)C(=O)c2cccc(NC(=O)c3nc4ccccc4s3)c2O[C@@H]1CN(C)S(=O)(=O)c1cn(C)cn1 | inactive | inactive | inactive |
| C[C@@H]1CCCCO[C@H](CN(C)C(=O)Nc2ccc3c(c2)OCO3)[C@H](C)CN([C@H](C)CO)C(=O)c2cc(NC(=O)C3CCCCC3)ccc2O1 | inactive | inactive | inactive |
| CC1=NN(c2ccc(C)c(C)c2)C(=O)C1=NNc1cccc(-c2cccc(C(=O)O)c2)c1O | inactive | inactive | inactive |
| C[C@@H]1CN([C@@H](C)CO)C(=O)c2cc(NC(=O)Nc3ccc4c(c3)OCO4)ccc2O[C@@H](C)CCCCO[C@H]1CN(C)C(=O)c1ccccc1 | inactive | inactive | inactive |
| Cc1noc(C)c1NC(=O)Nc1ccc2c(c1)C(=O)N([C@H](C)CO)C[C@@H](C)[C@H](CN(C)C(=O)Nc1c(C)noc1C)OCCCC[C@@H](C)O2 | inactive | inactive | inactive |
| C[C@H](CO)N1C[C@H](C)[C@@H](CN(C)Cc2ccc(Oc3ccccc3)cc2)OCc2ccccc2-c2c(n(C)c3ccccc23)C1=O | inactive | inactive | inactive |
| C[C@@H]1CN([C@@H](C)CO)C(=O)c2cccc(NC(=O)Nc3ccc(C(F)(F)F)cc3)c2O[C@H]1CN(C)Cc1ccc(C(=O)Nc2ccccc2N)cc1 | inactive | active | inactive |
| C[C@H]1CN([C@@H](C)CO)C(=O)c2cc(NS(=O)(=O)c3ccc(Cl)cc3)ccc2O[C@H]1CN(C)Cc1ccc(Oc2ccccc2)cc1 | active | inactive | inactive |
| Cc1noc(C)c1S(=O)(=O)Nc1ccc2c(c1)C(=O)N([C@H](C)CO)C[C@@H](C)[C@H](CN(C)CC1CCCCC1)OCCCC[C@H](C)O2 | inactive | inactive | inactive |
| C[C@@H]1CN([C@@H](C)CO)C(=O)c2cc(NC(=O)Nc3ccc(F)cc3)ccc2O[C@@H](C)CCCCO[C@@H]1CN(C)S(=O)(=O)c1cccs1 | inactive | inactive | inactive |
| COc1cccc(-c2ccc3c(c2)O[C@@H](CN(C)C(=O)C2CCC2)[C@H](C)CN([C@@H](C)CO)S3(=O)=O)c1 | inactive | inactive | inactive |

| SMILES | cytotoxicity call [1] | cytotoxicity call [2] | growth inhibition call [3] |
| --- | --- | --- | --- |
| C[C@@H]1CN([C@@H](C)CO)C(=O)Cc2cc(NC(=O)Nc3ccc(F)cc3)ccc2O[C@H]1CN(C)Cc1ccc(C(=O)Nc2ccccc2N)cc1 | inactive | inactive | inactive |
| CC[C@@H](C)NCc1ccsc1 | inactive | inactive | inactive |
| C#CC1(O)CCC2C3CCC4=CC(=O)CCC4C3CCC21C (stereo unspecified) | inactive | inactive | inactive |
| C[C@@H]1CN([C@@H](C)CO)C(=O)c2cccc(NS(=O)(=O)c3ccccc3)c2O[C@H]1CN(C)Cc1ccc(Cl)c(Cl)c1 | inactive | inactive | inactive |
| C[C@@H]1CCCCO[C@@H](CN(C)CC2CCCCC2)[C@H](C)CN([C@H](C)CO)C(=O)c2cc(NC(=O)c3ccncc3)ccc2O1 | inactive | inactive | inactive |
| COc1cccc(S(=O)(=O)N(C)C[C@@H]2OCc3cnnn3CCCC(=O)N([C@H](C)CO)C[C@@H]2C)c1 | inactive | inactive | inactive |
| COc1ccc(C#Cc2ccc3c(c2)O[C@H](CN(C)S(=O)(=O)c2ccccc2F)[C@H](C)CN([C@H](C)CO)S3(=O)=O)cc1 | inactive | inactive | inactive |
| O=S1(=O)C[C@H](O)[C@@H](N2CCN(CCO)CC2)C1 | inactive | inactive | inactive |
| Cc1nccn1-c1ccc(CN)cc1 | inactive | inactive | inactive |
| CCS(=O)(=O)Nc1ccc2c(c1)C(=O)N(C)C[C@H](OC)[C@@H](C)CN(CCC(F)(F)F)[C@@H](C)CO2 | inactive | inactive | inactive |
| C[C@H]1CN([C@@H](C)CO)C(=O)c2cccc(NC(=O)C3CC3)c2O[C@H]1CN(C)Cc1ccc(C(=O)O)cc1 | inactive | inactive | inactive |
| CCCC(=O)Nc1ccc2c(c1)C(=O)N(C)[C@H]1CC[C@H](CC(=O)NCCN3CCCCC3)O[C@@H]1CO2 | inactive | inactive | inactive |
| CC(C)CC#Cc1ccc2c(c1)O[C@H](CN(C)CC1CCOCC1)[C@H](C)CN([C@@H](C)CO)S2(=O)=O | inactive | inactive | inactive |
| CC(C)N1C[C@H](C)[C@@H](CN(C)Cc2ccc(Cl)cc2)Oc2c(NC(=O)c3ccncc3)cccc2C1=O | inactive | inactive | inactive |
| C[C@@H]1CN([C@@H](C)CO)C(=O)c2cc(NC(=O)CCC(F)(F)F)ccc2O[C@H]1CN(C)Cc1ccc(C(=O)Nc2ccccc2N)cc1 | inactive | inactive | inactive |
| C[C@H](CO)N1C[C@H](C)[C@H](CN(C)Cc2ccccc2)Oc2cc(C#CC(C)(C)O)ccc2S1(=O)=O | inactive | inactive | inactive |
| C[C@@H]1CN([C@@H](C)CO)C(=O)Cc2cc(NC(=O)Nc3ccccc3)ccc2O[C@@H]1CN(C)S(C)(=O)=O | inactive | inactive | inactive |
| C[N+]1(CCCCC[N+]2(C)CCCC2)CCCC1.O=C([O-])C(O)C(O)C(=O)O.O=C([O-])C(O)C(O)C(=O)O | inactive | inactive | inactive |
| Cn1nnc2c1[C@H](COCC1CC1)CN(C(=O)CS(C)(=O)=O)C2 | inactive | inactive | inactive |
